The whole screen tested about 48,000 compounds, of which about 120 (0.25%) were called active. Roughly 4% stayed inconclusive and do not appear here. The call rests on the fitted dose curve; in most records, active means well fitted activation curve with a large enough effect; inconclusive means small, poorly fitted or top-dose-only effect, or another doubt; inactive means no such curve, though single readings can be large or run the other way. This is one part of the list.
Experiment: Primary qHTS for Identification of Small Molecule Activators of Huntingtin-Antisense Promoter Activity; further: nearly all actives have a fitted effect of over 55% in size
Details: HEK293 HTT-AS promoter firefly luciferase reporter, 24 h; series mostly up to 57.5 µM; activity change, positive = activation: at the top concentration
Method in brief: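 Quantitative HTS used concentration series of up to 57.5 uM final on HEK293 luciferase reporter cells, 24 h at 37 degrees C. Readout was Dual-Glo firefly luminescence.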

Activity change, positive = activation, inactive:
CC(=O)c1cc(-c2ccc(F)cc2)n(CC(=O)NC(C)c2ccccc2)c1C (centres undefined) -7.55%, Cc1ccccc1NC(=O)Nc1ccc2nc(N3CCN(C)CC3)cc(C)c2c1 -11.6%, Cc1cccn2c(=O)c(/C=C(\C#N)c3nc4ccccc4s3)c(Oc3ccc(Br)cc3)nc12 -4.61%, COc1ccccc1Nc1nn2c(=O)c3ccc(C(=O)Nc4ccc(F)cc4)cc3nc2s1 -4.93%, NC(=O)c1cc(S(=O)(=O)NCc2ccc(Br)cc2)cs1 -5.62%, CCOc1ccc2oc(=O)cc(CN3CCN(C(=O)c4cccc(F)c4)CC3)c2c1 -29.1%, CCCN(CCC)CCNC(=O)Cn1ncc2c([nH]c3ccc(C)cc32)c1=O -3.49%, Cc1cccc(C(=O)O)c1O 1.58%, CCc1cccc(-n2c(=O)c3cccnc3n2CC(=O)NCc2ccccc2Cl)c1 -17.1%, CCOC(=O)c1[nH]c(C)c(CCC(=O)NCc2ccc(C)cc2)c1C -6.73%, CCN(c1ccccc1)S(=O)(=O)c1ccc(NC(=O)c2cc(=O)c3ccc(C)c(C)c3o2)cc1 0%, CCC=CC[C@H]1C(=O)CC[C@@H]1CC(=O)OC -4.41%, Cc1ccc2c(CC(=O)Nc3c(C(=O)c4ccc(F)cc4)oc4ccccc34)coc2c1 5.88%, Nc1nc(Cl)nc2c1ncn2[C@H]1C[C@H](O)[C@@H](CO)O1 -21.1%, Cn1cc(C(=O)[C@@H]2CCc3nc[nH]c3C2)c2ccccc21 -9.05%, CCC(=O)OCc1cnc(C)c2oc(=O)c(C(=O)Nc3ccc(CC)cc3)cc12 -4.16%, CC(NC(=O)C1CCN(C(=O)N2CCOc3ccc(Cl)cc32)CC1)c1ccccc1 (centres undefined) -12.4%, COc1ccc(-c2nc3c(c(SCc4cc(C)ccc4C)n2)Cc2c(CO)cnc(C)c2O3)cc1 -14.5%, COc1ccc(N2CCN(C(=O)c3nn(C)c4c3CS(=O)(=O)c3ccccc3-4)CC2)cc1 -3.05%, COc1ccc(CCNC(=O)CS(=O)Cc2nc(-c3ccc(C)cc3)oc2C)cc1OC (centres undefined) -17.3%, O=C(CCSCc1ccc(Cl)cc1)N1CCN(c2ccccc2F)CC1 -9.66%, Cc1ccc(CNc2nc3c(S(=O)(=O)c4ccc(C)c(C)c4)nnn3c3ccc(Cl)cc23)cc1 19%, O=C(CN1CCN(c2ccc(Cl)cc2)CC1)Nc1ccc(Cl)c(C(F)(F)F)c1 -20.7%, Cc1ccc(CSc2oc(-c3ccco3)nc2S(=O)(=O)c2ccc(Br)cc2)cc1 -6.53%, CC1CCN(C(=O)CSc2nc3c([nH]c4ccccc43)c(=O)n2-c2ccccc2)CC1 -7.47%, Cc1ccc(CNC(=O)CCn2ccc3cc(S(=O)(=O)N4CCCC4)ccc32)cc1 -24.8%, COc1ccccc1NC(=O)CSc1nnc(-c2nonc2NC(C)=O)n1-c1ccccc1 -12.3%, CCc1ccc(NC(=O)Cn2c(=O)n(Cc3nc(C)no3)c(=O)c3cc4c(cc32)OCO4)cc1 -7.6%, CCOc1ccc(-n2c(=O)c3c4c(sc3n(Cc3cc(=O)n5cc(Cl)ccc5n3)c2=O)CCC4)cc1 5.25%, O=C(/C=C\c1ccc2c(c1)OCO2)NC1CC(=O)N(c2ccc(F)cc2)C1 (centres undefined) -15.2%, CC1CCN(S(=O)(=O)c2cc(C(=O)NCCc3ccccc3)n(C)c2)CC1 -23.9%, CC(C)(C)c1ccc(C(=O)Nc2cc(-c3ccccc3)nn2-c2ccccc2)cc1 -6.16%, Cc1ccc(C)c(N2CCN(C(=O)c3cc4cc5ccc(C)cc5nc4s3)CC2)c1 3.77%, O=C(O)COc1ccccc1C1Nc2ccccc2-c2nnc(SCc3ccc(Cl)cc3)nc2O1 (centres undefined) -18.4%, Cc1ccc(C)c(N2CCN(C(=O)C3CCC(CNS(=O)(=O)c4ccc(Br)s4)CC3)CC2)c1 (centres undefined) -31.4%, COc1cccc(NC(=O)Cn2c(=O)n(CCCCC(=O)NCc3ccc4c(c3)OCO4)c(=O)c3ccccc32)c1 -25.2%, CCCS(=O)(=O)N1CC(=O)N(c2cc(C)cc(C)c2)C(C)(C(=O)NC2CCCCCC2)C1 (centres undefined) -10.6%, CCOc1ccccc1C(=O)Nc1cc(-c2nc3cccnc3s2)ccc1C -0.355%, CCC(Sc1ncnc2sc3c(c12)CCCC3)C(=O)OCC(C)C (centres undefined) -24.9%, COc1ccc(-n2c(SCc3nc(-c4ccc(Cl)cc4)no3)nnc2-c2ccncc2)cc1 -10.3%, CCOC(=O)N1CCC(NC(=O)c2cnn(-c3ccc(C)cc3)c2C2CCN(C(=O)OC(C)(C)C)CC2)CC1 -11.7%, CCOc1ccc(-c2cc(CCCC(=O)NCCc3ccc(OC)c(OC)c3)no2)cc1 -81%, CC(C)(C)C(=O)Nc1ccc2nc(SCCOc3ccccc3Cl)sc2c1 -29.7%, CCc1ccccc1NC(=O)Cn1nnc(C(=O)Nc2ccc(OC)c(OC)c2)c1N -4.98%, Cc1cccc(NC(=O)c2oc3ccc(S(=O)(=O)N(C)C4CCCCC4)cc3c2C)c1C -36.9%, CCCCN(Cc1ccco1)C(=O)c1cc2c(s1)-c1c(C)cccc1OC2 -16.7%, CCOC(=O)c1ccccc1NC(=O)c1nn(-c2ccc(C)cc2)c(=O)n(C)c1=O -9.4%, CCc1ccc(S(=O)(=O)N2CCN(c3ccc(Cl)c(Cl)c3)CC2)cc1 -30.9%, Cc1c(NC(=O)C(F)(F)F)ccc2nc3c(=O)n(C)c(=O)n(C)c3nc12 12.5%, CCc1ccccc1NC(=O)c1cnn(-c2ccc(F)cc2)c1C1CCNCC1 -5.11%, COc1ccc(-c2cc(-c3ccc4c(c3)NC(=O)CO4)nc3c2COc2ccc(C)cc2-3)cc1 6.2%, COc1ccc(-n2ncc(C(=O)NCCCN3CCCCC3)c2C2CCN(C(=O)OC(C)(C)C)CC2)cc1 -0.754%, CCOCCCNC(=O)Cn1cc2c(n1)-c1c(oc(C(=O)N3CCCC3)c1C)CC2 -18.7%, CC(C)c1ccc(NC(=O)c2cnn3c(C(F)F)cc(-c4ccccc4)nc23)cc1 4.21%, Cc1cc(C)c(S(=O)(=O)N2CCC(N3CCN(Cc4ccc(F)cc4)C(=O)C3=O)CC2)c(C)c1 -2.49%, COC(=O)Cn1ccc2cc(S(=O)(=O)N3CCCCC3)ccc21 -15.1%, Cc1ccccc1NC(=O)c1ccc(F)c(S(=O)(=O)N2CCc3ccccc3C2)c1 -30.2%, Cc1ccc(C(C)C)c(OCCCn2c(=O)oc3ccc(C)cc32)c1 -23.6%, Nc1nc(N)c2nc(CNc3ccc(C(=O)NC(CCC(=O)O)C(=O)O)cc3)cnc2n1 (centres undefined) -41.2%, COc1cc(O)ccc1-c1nc2cc(C)ccn2c1Nc1ccccc1C -24.4%, O=C(CSc1ncc(CO)n1Cc1ccc(F)cc1)NCc1ccco1 -8.53%, CCc1ccc(S(=O)(=O)Nc2cccc(-c3ccc(OC)nn3)c2)s1 -60.8%, Cc1cccc2c(=O)cc(CSc3ccccc3NC(=O)c3cccc(Br)c3)[nH]c12 -21.1%, O=C(Nc1cccc(F)c1)C1CCN(S(=O)(=O)c2ccc3[nH]c4c(c3c2)CCCCC4)CC1 -41.5%, COc1ccc(NC(=O)CSc2nc3nc(C)cc(C)n3n2)cc1OC 0%, Fc1ccc(C(c2ccc(F)cc2)N2CCN(C/C=C/c3ccccc3)CC2)cc1 -34.5%, CCOc1ccccc1NC(=O)NCc1noc2ccc(C)cc12 -12.7%, Cc1ccc(N2CC(C(=O)NCc3nnnn3-c3ccc(C)c(C)c3)CC2=O)cc1C (centres undefined) -2.31%, CC(C)c1ccc2oc(-c3cc(NC(=O)c4cccnc4)ccc3Cl)nc2c1 -25.1%, COc1cc(C(=O)NCC(c2ccc3c(c2)OCO3)N2CCN(C)CC2)cc(OC)c1OC (centres undefined) -7.49%, COc1cccc2c1cc1c(=O)n(CC(=O)NCc3ccc(N(C)C)cc3)nc(C)n12 -5.67%, COc1cccc(NC(=O)c2sc3nc(C)c(C(=O)Nc4ccc(C)cc4C)c(-c4ccc(C)o4)c3c2N)c1 13.9%, CCC1CCCCN1CCCNC(=O)c1c(C)oc2ncn(CC(C)C)c(=O)c12 (centres undefined) -5.57%, O=c1n(Cc2ccc(Cl)cc2)nc2n1-c1ccccc1OC2 11.5%, Cc1cccc(NC(=O)CN2C(=O)CC(c3ccccc3)Sc3ccccc32)c1 (centres undefined) -35.4%, Cc1ccc(NC(=O)CCc2c(C)nc3ncnn3c2C)cc1Cl -7.19%, Cc1ccccc1NC(=O)Cn1nnc(C(=O)NCc2cccs2)c1N -20.5%, Cc1ccc(C)c(CSc2cn(CCNC(=O)c3cccs3)c3ccccc23)c1 -36.5%, CCc1ccc(NS(=O)(=O)c2ccc(NC(=O)N3CCCC3)cc2)cc1 -2.89%, Cc1ccc(CSc2nc3cc(C(=O)NC4CCCC4)ccc3c(=O)n2Cc2ccccc2)cc1 -9.14%, O=C(Nc1cccc(O)c1)c1cc(-c2ccccc2F)no1 19.7%, CCc1ccc(NC(=O)Cn2nnc(C(=O)Nc3ccc(F)cc3)c2N)cc1 3.6%, O=C(NCc1cccc(Cl)c1)c1ccc2c(Cl)c3c(nc2c1)CCCC3 -22%, COc1ccc(CCN2C(=O)N(c3ccc(C)cc3)C(=O)C2CC(=O)Nc2ccc(OC)cc2)cc1 (centres undefined) 0%, COc1cc(NC(=O)c2cc(S(=O)(=O)N3CCC(C)CC3)cn2C)cc(OC)c1OC -9.57%, CCOC(=O)C1CCCN(C(=O)Cn2ncc3c4ccccc4n(C)c3c2=O)C1 (centres undefined) -20.3%, Cc1cccc(NC(=O)CCNS(=O)(=O)c2cccc3nonc23)c1 1.51%, CC(=O)Nc1ccc(S(=O)(=O)NC2(C(F)(F)F)C(=O)Nc3c2c(=O)[nH]c(=O)n3-c2ccc(C)c(C)c2)cc1 (centres undefined) -2.48% [at 11.5 µM, percent change from vehicle, -100% = no light], COc1cccc(-n2c(-c3ccco3)nc3c(cnn3-c3ccc(C)cc3)c2=O)c1 -27.6%, CCN1c2ccccc2-c2nc(SCC(=O)Nc3c(C)cc(C)cc3C)ncc2S1(=O)=O -16.1%, CCOc1ccc(C(=O)c2cn(Cc3ccc(OC)cc3)c3cc(OC)c(OC)cc3c2=O)cc1 -11.9%, CCOc1ccc(NS(=O)(=O)c2ccc3[nH]cc(C(=O)NC4CCCC4)c(=O)c3c2)cc1 -37.5%, Cc1ccc(C(=O)CSc2nnc(-c3ccccc3)n2-c2ccccc2)cc1 -2.94%, CCOc1ccc(NC(=O)CSc2ncc3c(n2)-c2cc(Cl)ccc2N(C)S3(=O)=O)cc1 -16.8%
